Reference: the supplement of paper PMC11417369
This is one part of the list.

Tested on: PfSIP2 AP2 domain 1 (GST-tagged)
Experiment: gcPBM binding intensity (ln(normalized median fluorescence intensity)); higher = stronger DNA binding
Summary of the method: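 Each value is the highest Masliner-normalised natural-log median intensity across replicate spots of either orientation of a probe. The probes were primer-extended double-stranded 36-bp intergenic genomic sequences on an Agilent 4 × 180k array, alongside negative controls, exposed for 1 h to GST-tagged P. falciparum DNA-binding domains expressed in E. coli. Bound protein was picked up with Alexa488 anti-GST antibody and scanned at 488 nm.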

Compared with “AAATTAAAGGCATAAAAGAAAATATTTAATAAAAAA [CACACA_negctrl_site1689]”, “ACCAGTTCTTAATACAAATATGTACATATATATATA [GTGCAC_negctrl_site56]” is higher in “gcPBM binding intensity (ln)” value: 6.57 for the first, 9.11 for the second.

Going from “TTTTTTTTAATTGTGATACGTATATTATTTAATGAT [CACACA_negctrl_site38]” to “TATTCGTCTTTTTTCTCACACACCCTTTTTATTAAA [CACACA_site2508]”, the “gcPBM binding intensity (ln)” value rises from 7.16 to 7.5.

Going from “TATTTCATCTTATTTTAGGAAAAACTAATATATAAG [CACACA_negctrl_site1823]” to “AAATTTAGGAACATTATATATATATATATATATATA [CACACA_negctrl_site862]”, the “gcPBM binding intensity (ln)” value rises from 6.91 to 9.4.

First: GAACATTTGAAATATGCACACATGTATAAACCTACA [CACACA_site2654]
Second: TAAAAATAAAGAAAATGTACATAAATAATAATACAT [XGTACX_site2278]
The “gcPBM binding intensity (ln)” value of the first is higher: 7.47 for the first, 6.99 for the second.

Going from “CAAAAAAAGGAAAAGATACACACCGTAAATTAAAAT [CACACA_site3612]” to “TGTGCATAATTTTGTGCACACCACGCTAATAATTTT [CACACA_site2915]”, the “gcPBM binding intensity (ln)” value rises from 6.73 to 10.9.

Compared with “GGAATAAATAATATTATACACACGTATATTATTATA [CACACA_site2435]”, “AAGCTTTCATAAAGATGTACTTTTTAAAAATAATCT [XGTACX_site5725]” is higher in “gcPBM binding intensity (ln)” value: 6.83 for the first, 7.11 for the second.

Compared with “AAAATAAAAAATTAATGTACTTAGAATTGTCACTAA [XGTACX_site1346]”, “TTTTTCATGTTTATTAGTACATATATTAAGAATGGA [XGTACX_site3493]” is higher in “gcPBM binding intensity (ln)” value: 6.79 for the first, 7.32 for the second.

Compared with “ACCTATTTATAATAGTGTACGTACAAATTTGTTTAC [XGTACX_site8176]”, “TTTTGTAAATATATATGTACATATATATATATATAT [XGTACX_site5803]” is higher in “gcPBM binding intensity (ln)” value: 8.33 for the first, 9.12 for the second.

First: AATTTGTTGAAACACACACACACATACATATATATA [CACACA_site2287]
Second: TAAAATAATAAACAGAAGAAATCATTCATATAAAAA [XGTACX_negctrl_site502]
The “gcPBM binding intensity (ln)” value of the first is higher: 7.39 for the first, 6.59 for the second.

“ATAAATATATGATAAAGTACATATTTATATAATAAA [XGTACX_site7263]” and “TGATATTATATATATACACACATGTATGTATATATA [CACACA_site1364]” are the same in “gcPBM binding intensity (ln)” value: 6.88 for the first, 6.88 for the second.

Going from “ATATTTATTTATAATTGTACTAATAATATATTTTAA [XGTACX_site587]” to “ATGTATCTATATATATGTACACATATTTTAATTAAA [XGTACX_site3673]”, the “gcPBM binding intensity (ln)” value rises from 6.89 to 7.34.

Compared with “TATATACACGCACATACACACAAATAAAAAAACACC [CACACA_site7578]”, “TGTGTTGTAATTAAAACACACATGAAAAAATTAAAA [CACACA_site51]” is lower in “gcPBM binding intensity (ln)” value: 8.23 for the first, 6.9 for the second.

First: GTATTATTCTATAGAAGTACAGTATATTATTATTTA [XGTACX_site5073]
Second: TACAACAAGTAATGGTGTACATTATATTATGTAATA [XGTACX_site1194]
The “gcPBM binding intensity (ln)” value of the first is higher: 7.6 for the first, 6.98 for the second.

Going from “TATAACAATTTTTATGCATGCGACTATAATATTTTT [TGCATGCA_site508]” to “TAAGGATTGGTATAAAGTACAGGAGTAAATTGAAAA [XGTACX_site8525]”, the “gcPBM binding intensity (ln)” value rises from 6.81 to 7.06.

Going from “TACATATTGAATAAGACACACATATATATATATATA [CACACA_site1878]” to “CATACACATATATATTGTACACATATATGTATGTAT [XGTACX_site4030]”, the “gcPBM binding intensity (ln)” value falls from 9.24 to 7.07.

Going from “ATATTTTTTTTTTATTGTACCCTCATAAAAGAAAAG [XGTACX_site773]” to “AATAAATATAAATACACACCCATATAAATATAAATA [CACACA_site7264]”, the “gcPBM binding intensity (ln)” value falls from 7.23 to 6.87.

First: ACAAAGATAAAACATAAAATATATCAAACATAAAAT [XGTACX_negctrl_site198]
Second: AAAAAAAATACATGTTGTACGGTACAAATATAAAGT [XGTACX_site2863]
The “gcPBM binding intensity (ln)” value of the first is lower: 7.05 for the first, 7.53 for the second.

First: AAAATAATAAAAAAAAAAAAAAAAAAAAAAAAGTAT [TGCATGCA_negctrl_site193]
Second: ATATATCTTCTTTGCACACTTAAAGGGAAGTGATAA [CACACA_site342]
The “gcPBM binding intensity (ln)” value of the first is lower: 6.81 for the first, 7.35 for the second.

Compared with “AAAAAAATAATAAAATGTACAAATAAACACATAAAG [XGTACX_site5102]”, “AAATAAAATAAAACAACACACACGAATGTATAAATA [CACACA_site885]” is lower in “gcPBM binding intensity (ln)” value: 7.24 for the first, 6.93 for the second.

First: TAATGTATCTAAAATTGTACAAATATAAATCTAAAT [XGTACX_site1197]
Second: CGCGCCCAGAAACACACACACACACCGATATATATA [CACACA_site5250]
The “gcPBM binding intensity (ln)” value of the first is lower: 6.97 for the first, 7.62 for the second.

Compared with “TTATTTATGAAGTATACACACAATATATATATATAT [CACACA_site1248]”, “TTAATCCACAGACACACACACACAAAATAAAATACA [CACACA_site244]” is lower in “gcPBM binding intensity (ln)” value: 8.99 for the first, 7.22 for the second.

For “TAGTTCTTTTAATTTAGTATTATACAATATTGGAAA [CACACA_negctrl_site521]”, the “gcPBM binding intensity (ln)” value was 6.81.
